Drawing on article PMC7819943, “Rice protein-binding microarrays: a tool to detect cis-acting elements near promoter regions in rice”, this text covers binding signal for 42 sequences.

This is one part of the list.

This assay has as its target T1, OsWOX13 (Oryza sativa, UniProt Q5QMM3 1-267).
T1 sequence: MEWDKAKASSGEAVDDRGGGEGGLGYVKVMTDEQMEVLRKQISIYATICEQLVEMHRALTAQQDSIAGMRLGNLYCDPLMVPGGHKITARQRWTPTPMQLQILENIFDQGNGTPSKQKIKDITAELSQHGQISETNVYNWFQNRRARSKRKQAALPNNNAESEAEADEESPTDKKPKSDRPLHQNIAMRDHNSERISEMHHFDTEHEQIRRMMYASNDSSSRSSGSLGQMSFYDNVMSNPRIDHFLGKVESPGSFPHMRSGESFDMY
Briefly: protein-binding microarray (RPBM); PBS, 2% BSA, 51.3 ng/ul salmon testes DNA, 50 uM zinc acetate, 200 nM TF, 25 C, 1 h; high values mean tight binding. Conditions: protein: recombinant; tags: N-terminal polyhistidine and DsRed monomer fusion (pET32a); label: CyDye5-dUTP incorporated in the synthesized complementary strand; 3' TTTTT single-stranded linker to array surface; dsDNA, one strand shown. Put shortly:
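Using Ni–NTA, transcription factors fused N-terminally to polyhistidine and DsRed were purified after expression in E. coli BL21-CodonPlus. These were incubated at 200 nM with a blocked, double-stranded custom Agilent array for 1 h at 25 °C in a buffer containing 50 µM zinc acetate, and the array was washed. The binding signal is per-feature fluorescence intensity (arbitrary units) on an Axon 4000B scanner.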
As to “TCCTAAACTGCTAATTTCTTATTTGTTCTGTCATAAAATACGGAGTCACCTAGTGCAG”, the binding signal is 8000 fluorescence intensity (a.u.).

In the case of “CACTCCCCATCCAATCAAACTCCTCCGATCCCAATCCAACCGGAGTCACCTAGTGCAG”, the binding signal was 5160 fluorescence intensity (a.u.). The result for “TCCATTAAATTTGAATGTCTCTTCCCTACAAAATGTTACTCGGAGTCACCTAGTGCAG” reads 5620 fluorescence intensity (a.u.); that for “AACTAATTAATAATTATGACCATTAACAAACACACAAATACGGAGTCACCTAGTGCAG”, 26000 fluorescence intensity (a.u.). The same measure for “TGCATGAATTGATCAACAAGACAAAAGTTACAAAACATGTCGGAGTCACCTAGTGCAG”: 4160 fluorescence intensity (a.u.).

On to “CACAATTGCGCATAGTTAACGATTAATAACCAAAGCCTTGCGGAGTCACCTAGTGCAG”, for which the binding signal was 3400 fluorescence intensity (a.u.). For “CGGTCGCCAATTAACCATTCAGAAATCAGAAGAGTAGCAACGGAGTCACCTAGTGCAG”, the binding signal is 4900 fluorescence intensity (a.u.). The result for “TTTCTTAAGTGCTTTTAATTAGCAACGTAACTGGAGGAGCCGGAGTCACCTAGTGCAG” reads 8140 fluorescence intensity (a.u.); that for “TTGGACACTAATTATAAATATTAAATATAGACTATTAATACGGAGTCACCTAGTGCAG”, 4640 fluorescence intensity (a.u.). As to “AACAATTAACCAATGATGATGTTCATCTTTGTACTGAACTCGGAGTCACCTAGTGCAG”, the binding signal is 8130 fluorescence intensity (a.u.). “TTTGATGTTAATTGATGCTCTATGTTCTGTCAAGTCATTGCGGAGTCACCTAGTGCAG”: the binding signal was 41300 fluorescence intensity (a.u.). Regarding “GTTCAAATCTTGATTGGATTTAAAAGTAGTATCTTTTACTCGGAGTCACCTAGTGCAG”, the binding signal is 17500 fluorescence intensity (a.u.). “TTGTAATAATTAAAATAAAATTTATTTTACGCTAATGATCCGGAGTCACCTAGTGCAG”: the binding signal is 13100 fluorescence intensity (a.u.). The result for “ATCTCAAAATTTGTAAAATTATAATGGCATGGTTCCAATTCGGAGTCACCTAGTGCAG” reads 4470 fluorescence intensity (a.u.); that for “GTGGTAATGTCTCTGCAAATTAAATCGTGATTTTAGAGGACGGAGTCACCTAGTGCAG”, 9210 fluorescence intensity (a.u.). The same measure for “CGTGGCTAATTTGACTCAGTCTTCAACTGACGTGGTAATTCGGAGTCACCTAGTGCAG”: 15900 fluorescence intensity (a.u.).

In the case of “CATTCATTTAGATGTTAATGAATTTAGACATATATATGTGCGGAGTCACCTAGTGCAG”, the binding signal is 7780 fluorescence intensity (a.u.). “TCAAATAAATTAAGAAATCTCTTTTGTGAATTCTCTCTGACGGAGTCACCTAGTGCAG”: the binding signal is 14000 fluorescence intensity (a.u.). In the case of “ACACCTAATTAATGTCCCATGGAATCAGCAATCAGATGGCCGGAGTCACCTAGTGCAG”, the binding signal was 21700 fluorescence intensity (a.u.).

Turning to “ACTGTGATTTAACAAGTAAAATATTGTTTGATAGTTCAAACGGAGTCACCTAGTGCAG”, the binding signal is 9190 fluorescence intensity (a.u.). The result for “TCCTAAATTTGGTAGCAATCTAGAACTTTCTTCGCTATGGCGGAGTCACCTAGTGCAG” reads 10300 fluorescence intensity (a.u.). Take “ATCTGTCTTAGTTAATTTAATTTAATTTATGTTGGGTGGACGGAGTCACCTAGTGCAG”: the binding signal was 33900 fluorescence intensity (a.u.). The result for “CCACAACTTCAATAACAGGTGAATTTGACTTCTTCAGTGGCGGAGTCACCTAGTGCAG” reads 3990 fluorescence intensity (a.u.); that for “TGTACATGATTAATTGCAATTAGCTAGTGCGTATATAGAACGGAGTCACCTAGTGCAG”, 20500 fluorescence intensity (a.u.); that for “CTAATATAATCAAAACCATCATGAAATTTGGTTTAGGGAACGGAGTCACCTAGTGCAG”, 5520 fluorescence intensity (a.u.). The result for “ACATTAACATTACATTTATTCCCCTAAAACGAAAACTTCTCGGAGTCACCTAGTGCAG” reads 3320 fluorescence intensity (a.u.); that for “CAGTAATTGATCCGACTGCTGATTCGATGGCAGTAATCTTCGGAGTCACCTAGTGCAG”, 20100 fluorescence intensity (a.u.). The same measure for “TCTAGCATGATTGGGAGTTCGTTCGCCGCCGTCTCTGCCACGGAGTCACCTAGTGCAG”: 38900 fluorescence intensity (a.u.); for “GGAATAAATTTACCTTAGACAAGACTACTCGCGCAAGTCACGGAGTCACCTAGTGCAG”: 12300 fluorescence intensity (a.u.); for “TTAATAATTAAAATAACAATTTACAAACGACCGGATTAACCGGAGTCACCTAGTGCAG”: 6490 fluorescence intensity (a.u.). Regarding “TAATACTTAATTAACTATAAGAAAATACGTTGCTCCGTTTCGGAGTCACCTAGTGCAG”, the binding signal was 8340 fluorescence intensity (a.u.).

“TTTAATTTTGAATTTTAATTAATTGGAGTTTACACGGACTCGGAGTCACCTAGTGCAG”: the binding signal is 39800 fluorescence intensity (a.u.). As to “TCAAGAGACGCGATTAGCTAATTATCTCGATGAGTTTTATCGGAGTCACCTAGTGCAG”, the binding signal was 4130 fluorescence intensity (a.u.). The same measure for “GTGTTGATTTAATCACAAAACTACAATGTTTATAACACCACGGAGTCACCTAGTGCAG”: 30700 fluorescence intensity (a.u.). For “CTCAATCAGTCAATCTGTATACAGCAACTCAGCGATCTTACGGAGTCACCTAGTGCAG”, the binding signal is 18500 fluorescence intensity (a.u.).

Turning to “AGCAAATTAAGAAGATTGCCATCTTTCGAAAGCGTCAGGACGGAGTCACCTAGTGCAG”, the binding signal is 11900 fluorescence intensity (a.u.).

Turning to “CTGCACCAAACTAATTTATACATAATGCAAATTTCAGAGCCGGAGTCACCTAGTGCAG”, the binding signal is 7690 fluorescence intensity (a.u.). The result for “CAGTAGATGATGAGTAATGTAGAAATCTGCAATGTGGGTTCGGAGTCACCTAGTGCAG” reads 7730 fluorescence intensity (a.u.); that for “AGTAGATGATAGAACTATATCAAATTTGCACAGTGAAGTCCGGAGTCACCTAGTGCAG”, 7140 fluorescence intensity (a.u.). As to “GCCTTAAATTAGCCCTCAAGGATCCAAACAGGTGGGCTAACGGAGTCACCTAGTGCAG”, the binding signal is 7150 fluorescence intensity (a.u.). The result for “CACCTAAACCAAATCAATTTATTTAAGCAAATTTTGAGGGCGGAGTCACCTAGTGCAG” reads 19200 fluorescence intensity (a.u.); that for “CCTGCTATGATTAATACTAGTACTGTCACTTACCTCTCCGCGGAGTCACCTAGTGCAG”, 3820 fluorescence intensity (a.u.).
